This note sets out measurements from the supplement of paper PMC10600219.

Structures can show the parent of a compound that is named as a salt. Over roughly 2,800 compounds, “cell viability relative to vehicle” has its median near 0.98; the lowest 2% begin near 0.45. The list shows a part of the results.

This assay concerns NCI-H2228 alectinib-DTP. In words: cell viability relative to vehicle (fraction of vehicle); NCI-H2228 is an ALK-positive lung cancer line and DTP means drug-tolerant persister; higher = less growth inhibition. The conditions noted are these: 100 nM; treatment time 6 days. An outline of the steps:
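Values give cell viability as a fraction of vehicle-treated cells. Parental and drug-tolerant persister NCI-H2228 cells (persisters made with 1000 nM of a targeted drug for 13 days) were exposed in 384-well plates to the 3114-agent TargetMol anti-cancer compound library at 100 nM, with DMSO as vehicle. ATP was then read after 6 days by the CellTiter-Glo 3D Cell Viability Assay.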
As for `CC1=NN(c2ccc(C)c(C)c2)C(=O)/C1=N\Nc1cccc(-c2cccc(C(=O)O)c2)c1O` [Eltrombopag Olamine], the cell viability was found to be 1. Next, `O=c1cc(-c2ccccc2)oc2ccccc12` [Flavone]: 1.22; `C/C=C\c1ccc(OC)cc1` [cis-Anethol]: 1.03; `CCn1c(=O)c2c(nc(/C=C/c3ccc(OC)c(OC)c3)n2C)n(CC)c1=O` [Istradefylline]: 0.989. Compound `Cc1cc(C)nc(NS(=O)(=O)c2ccc(N)cc2)n1` [Sulfamethazine sodium salt] had a cell viability of 0.832. The figure for `CC(C)(O)[C@@H]1CC[C@](C)([C@H]2[C@@H](O)C[C@@]3(C)[C@@H]4C[C@H](O)[C@H]5C(C)(C)[C@@H](O)CC[C@@]56C[C@@]46CC[C@]23C)O1` [Cycloastragenol] is 0.973. The figure for `O=C(Nc1cnn2ccc(N3CCC[C@@H]3c3cc(F)ccc3F)nc12)N1CC[C@H](O)C1` [Larotrectinib sulfate] is 1.08; for `CN1CCN2c3ncccc3Cc3ccccc3C2C1` (stereo not drawn) [Mirtazapine] it is 1.21.

For the compound `CC(C)[C@H](N)C(=O)OCCOCn1cnc2c(=O)nc(N)[nH]c21` [Valacyclovir hydrochloride], the cell viability came to 1.05.

In the case of `CCC[C@@H]1C[C@@H](C(=O)N[C@@H]([C@H]2O[C@H](SC)[C@H](OP(=O)(O)O)[C@@H](O)[C@H]2O)[C@H](C)Cl)N(C)C1` [Clindamycin phosphate], the cell viability turned out to be 1.03. The figure for `CC(O)c1cc(C(=O)N[C@@H](C)Cn2ccc(-c3ccc(C#N)c(Cl)c3)n2)n[nH]1` (stereo partly drawn) [Darolutamide] is 0.989; for `CCCCCCNC(=O)n1cc(F)c(=O)[nH]c1=O` [Carmofur] it is 1.09; for `COc1cc2c(NC3CCN(C(C)C)CC3)nc(N3CCC(F)(F)CC3)nc2cc1OCCCN1CCCC1` it is 1.09. The figure for `COc1cccc2c1C(=O)c1c(O)c3c(c(O)c1C2=O)C[C@@](O)(C(=O)CO)C[C@@H]3O[C@H]1C[C@H](N)[C@H](O[C@@H]2CCCCO2)[C@H](C)O1` [Pirarubicin] is 0.684.

As for `Cc1nc(C(=O)NCC(=O)O)c(O)c2ccc(Oc3ccccc3)cc12` [Roxadustat], the cell viability stood at 0.941. Next, `COC(=O)N[C@@H](C)CNc1nccc(-c2cn(C(C)C)nc2-c2cc(Cl)cc(NS(C)(=O)=O)c2F)n1` [Encorafenib]: 0.985. Compound `CC[C@@H]1C(=O)N(C)c2cnc(Nc3ccc(C(=O)N[C@H]4CC[C@H](N5CCN(CC6CC6)CC5)CC4)cc3OC)nc2N1C(C)C` [Volasertib] returned a cell viability of 0.595. Next, `CC#C[C@]1(O)CC[C@H]2[C@@H]3CCC4=CC(=O)CCC4=C3[C@@H](c3ccc(N(C)C)cc3)C[C@@]21C` [Mifepristone]: 1.09; `COc1ccc(Cl)cc1C(=O)NCCc1ccc(S(=O)(=O)NC(=O)NC2CCCCC2)cc1` [Glyburide]: 0.923.

For `Nc1nc(=O)n([C@@H]2CS[C@H](CO)O2)cc1F` [Emtricitabine], the cell viability is 1.03.

`CC(C)=CCC1=C(O)C(=O)c2ccccc2C1=O` [Lapachol] had a cell viability of 0.96. Consider `Cc1c(O)c(C)c2c(c1O)C(=O)C[C@@H](c1ccc(O)cc1)O2` [Farrerol], for which the cell viability was found to be 0.874. Next, `CC(=O)O[C@H]1CC(=O)OC(C)(C)[C@@H]2CC(=O)[C@]3(C)[C@H](CC[C@@]4(C)[C@@H](c5ccoc5)OC(=O)[C@H]5O[C@]543)[C@@]12C` [Nomilin]: 1.15; `COc1ccc2c3n(c(=NC(=O)c4cccnc4)nc2c1OC)CCN3`: 0.447; `O=P(O)(O)C(O)(Cn1ccnc1)P(=O)(O)O` [Zoledronic Acid]: 0.799.

For `COC(=O)[C@H](CC(C)C)NC(=O)c1ccc(NC[C@@H](N)CS)cc1-c1cccc2ccccc12`, the cell viability was determined as 1.08. Next, `O=C(Nc1cnc(Cl)nc1)c1ccc(F)c(F)c1`: 1.03; `Cc1cc(C(C)(C)C)cc(C)c1CC1=NCCN1` [Xylometazoline hydrochloride]: 1.04; `O=c1c(O)c(-c2ccc(O)cc2)oc2cc(O)cc(O)c12` [Kaempferol]: 0.87. As to `NC[C@@](O)(c1ccc(Cl)cc1)c1ccc(-c2cn[nH]c2)cc1`, the cell viability worked out at 1.02. Next, `CC(C)NC(=O)C1CCC(n2c(NC(=O)c3ccc(F)cc3)nc3ccc(CN4CCC(C(C)(C)O)CC4)cc32)CC1` (stereo not drawn) [Belizatinib]: 1.1; `N#C/C(=C(/N)Sc1ccc(N)cc1)c1ccccc1C(F)(F)F`: 0.926. Next, `COc1cc2nc(N3CCN(C(=O)C4COc5ccccc5O4)CC3)nc(N)c2cc1OC` (stereo not drawn) [Doxazosin mesylate]: 0.911; `CC(C)n1ncnc1-c1cn2c(n1)-c1ccc(O[C@@H](C)C(N)=O)cc1OCC2`: 0.717; `CCCc1ccc(OCC(=O)N(Cc2nc(-c3cccnc3)no2)C(C)C)cc1`: 1.14. The figure for `N[C@H]1CONC1=O` [L-Cycloserine] is 1.1; for `CNC(=O)c1ccc(N2C(=S)N(c3ccc(C#N)c(C(F)(F)F)c3)C(=O)C2(C)C)cc1F` [Enzalutamide] it is 0.886.

In turn, `O=C(CCBr)N1CCN(C(=O)CCBr)CC1` [Pipobroman] registered a cell viability of 0.901. Next, `CC(C)(C)c1cc(NC(=O)Nc2ccc(-c3cn4c(n3)sc3cc(OCCN5CCOCC5)ccc34)cc2)no1` [Quizartinib]: 0.89; `CN1CCN(c2ccc(-c3cccc(CN4CCOCC4)c3)cc2NC(=O)c2c[nH]c(=O)cc2C(F)(F)F)CC1`: 0.918; `Nc1nc2c(cnn2CCc2ccccc2)c2nc(-c3ccco3)nn12`: 0.868.

Regarding `COc1cc2nccc(Oc3ccc(NC(=O)c4cn(C(C)C)c(=O)n(-c5ccc(F)cc5)c4=O)cc3F)c2cc1OC`, the cell viability came to 0.893. In turn, `OCC1OC(O)CC(O)C1O` [2-Deoxy-D-glucose] had a cell viability of 1.13. The figure for `CCN(CC)CCCC[C@H](NC(=O)[C@H](CC(C)C)NC(=O)[C@H](C)NC(=O)[C@H](Cc1ccccc1)NC(=O)c1ccc(C(C)(C)C)cc1)C(=O)N[C@@H](CO)C(=O)OC` is 1.08. The figure for `Cc1c(N)c(=O)n(-c2ccccc2)n1C` [4-Aminoantipyrine] is 1.18; for `CCC(Sc1nnc2c3ccccc3n(CC)c2n1)C(=O)Nc1ccccc1OC` (stereo not drawn) it is 1.01. With `O=C(/C=C/c1cccc(S(=O)(=O)Nc2ccccc2)c1)NO` [Belinostat], the cell viability worked out at 0.867.

`CN[C@H]1CC[C@@H](c2ccc(Cl)c(Cl)c2)c2ccccc21` [Sertraline hydrochloride] yielded a cell viability of 0.99.
